Data reported in PubChem BioAssay AID463173 (ICCB-Longwood Screening Facility, Harvard Medical School, 2010).
About 1,700 (3.3%) of roughly 52,000 compounds were called active. No stated cut-off is given here; in the data, active means survival mostly below about 52% (no sharp cut-off); inactive means mostly above about 56%. The list shows a part of the results.

The compounds below were run on Wild type (assay: growth inhibition of S. aureus wild type versus tarO mutant, primary screen, teichoic acid synthesis inhibitors, RN4220, OD600 (AID 463173)). Settings: S. aureus RN4220 wild type/DeltatarO growth, OD600, 18 h, active compounds read low, screened at 18.75 µg/mL (by protocol).

Row | SMILES | survival
1 | Cc1ccc(-n2nc(C(=O)N(C)c3ccccc3Cl)c3c4ccccc4n(C)c3c2=O)cc1 | inactive: 84%
2 | CC1CCCCC1NC(=O)CN1CCC(NC(=O)Nc2ccccc2)CC1 (stereo not drawn) | inactive: 100%
3 | Cc1ccc(NC(=O)Cn2cc(S(=O)(=O)Cc3ccccc3)c3ccccc32)cc1C | inactive: 128%
4 | COC(=O)c1cc2occc2n1Cc1nc(-c2ccc(Cl)cc2)oc1C | inactive: 91%
5 | CCc1ccc(S(=O)(=O)c2cn(C)c3ccc(C)cc3c2=O)cc1 | inactive: 98%
6 | O=C(CSc1ncc(-c2ccccc2)[nH]1)Nc1cccc(O)c1 | inactive: 140%
7 | CC(NC(=O)CN1C2CCC1CC(=O)NC2)c1ccccc1 (stereo not drawn) | inactive: 114%
8 | CCOCCCNC(=O)CN1C(=O)CCn2nc(-c3cccn3C)cc21 | inactive: 59%
9 | CSc1ccc(CCNC(=O)C2CCCN(S(=O)(=O)N(C)c3ccc(F)cc3)C2)cc1 (stereo not drawn) | inactive: 84%
10 | CCOC(=O)C(Cc1ccccc1)NC(=O)Cn1nnc(-c2ccc(C)cc2)n1 (stereo not drawn) | inactive: 70%
11 | CN(C)S(=O)(=O)N(CC(=O)NCCSCc1ccc(Cl)cc1Cl)c1ccccc1 | inactive: 56%
12 | COc1ccc(NC(=O)CN2C(=O)C(c3ccccc3)=NC23CCC(C)CC3)cc1Cl (stereo not drawn) | inactive: 87%
13 | COc1ccc2[nH]c(=O)cc(C(=O)O)c2c1 | inactive: 94%
14 | CCOC(=O)C(CC)n1c(Br)nc2c1c(=O)[nH]c(=O)n2C (stereo not drawn) | inactive: 120%
15 | O=C1Cc2cc(S(=O)(=O)Nc3cccc(C(F)(F)F)c3)cc3c2N1CCC3 | inactive: 75%
16 | CC(C)c1ccc(NC(=O)c2cc(S(=O)(=O)NCCc3ccccc3)ccc2F)cc1 | inactive: 45%
17 | COc1ccc(-n2ccnc(NCCc3ccc(S(N)(=O)=O)cc3)c2=O)cc1Cl | inactive: 69%
18 | Cc1cccn2c(=O)cc(COc3cccc(NC(=O)Nc4cccc(Cl)c4)c3)nc12 | inactive: 134%
19 | C[C@H](NC(=O)OC(C)(C)C)c1nnc(SCc2ccc(Cl)cc2Cl)o1 | inactive: 51%
20 | COc1ccc(C(C)C)cc1S(=O)(=O)NCCc1c(C)[nH]c2c(Cl)cccc12 | inactive: 80%
21 | Cc1nn(CC(=O)N2CCN(c3ccccc3F)CC2)c(=O)c2cccn12 | inactive: 109%
22 | CCN(CC)c1ccc2nc3c(=O)n(C)c(=O)n(C)c3nc2c1 | inactive: 79%

Row | SMILES | survival
23 | COc1ccc(-c2nc3cc(N=Cc4ccccc4O)ccc3o2)cc1 | inactive: 111%
24 | CC(C)c1ccc(NC(=O)[C@H]2O[C@@H]3OC(C)(C)O[C@@H]3[C@H]3OC(C)(C)O[C@H]32)cc1 | inactive: 100%
25 | Cc1cc(OC(C)C(=O)N(Cc2ccco2)Cc2ccco2)cc(C)c1Cl (stereo not drawn) | inactive: 67%
26 | CCc1cc2c(=O)c(-c3nc(C)cs3)c(CCC(=O)O)oc2cc1O | inactive: 102%
27 | O=C(CSc1oc(-c2ccc(F)cc2)nc1S(=O)(=O)c1ccccc1)c1ccc(Cl)cc1 | inactive: 67%
28 | CC(C)c1nn2c(=O)cc(COC(=O)c3cccc(NC(=O)CCc4ccccc4)c3)nc2s1 | inactive: 74%
29 | CCN(Cc1ccccc1)C(=O)Cn1c(=O)cc(C)c2c(C)nn(-c3cccc(F)c3)c21 | inactive: 71%
30 | CCn1nc(C)c(CCN(C)C(=O)Nc2cc(Cl)c(OC)cc2OC)c1C | inactive: 100%
31 | O=C(C(c1ccccc1)c1ccccc1)N1CCN(c2ccccn2)CC1 | inactive: 98%
32 | CC(C)c1ccc(NC(=O)C2CCC(CNS(=O)(=O)c3ccc4c(c3)CCCC(=O)N4)CC2)cc1 (stereo not drawn) | inactive: 75%
33 | COc1ccc(CNC(=O)CCn2c(=O)c3cccn3c3ccc(F)cc32)cc1OC | inactive: 105%
34 | CCN1C(=O)c2ccccc2S(=O)(=O)c2ccc(C(=O)NCc3ccc(C)cc3)cc21 | inactive: 86%
35 | CCc1ccc2occ(CC(=O)Nc3nnc(SC)s3)c2c1 | inactive: 85%
36 | CCOc1ccc(-c2nnc(SCC(=O)NC3CCCCC3)nc2-c2ccc(OCC)c(OC)c2)cc1OC | inactive: 77%
37 | Cn1c(=O)c2c(-c3ccccc3)n(-c3cccc(C#N)c3)cc2n(C)c1=O | inactive: 86%
38 | CCOC(=O)c1[nH]c(C)c(CCC(=O)N2CCN(c3ccc(Cl)cc3)CC2)c1C | inactive: 71%
39 | CCS(=O)(=O)c1nc(S(=O)(=O)c2ccc(Cl)cc2)c(NCc2ccc(Cl)cc2)s1 | inactive: 80%
40 | COc1ccc(-c2ccc(=O)n(CC(=O)Nc3ccc(Br)cc3F)n2)cc1 | inactive: 56%
41 | COc1ccc(Cc2c(C)nn(-c3nc(C)c(C(=O)Nc4cccc(C(C)=O)c4)s3)c2C)cc1 | inactive: 88%
42 | CCc1ccc2nc(N(Cc3cccnc3)C(=O)Cc3ccccc3)sc2c1 | inactive: 71%
43 | CC1(C)NC(=O)N(CC(O)CN2C(=O)NC(C)(C)C2=O)C1=O | inactive: 117%
44 | CCC(C(=O)NCc1ccccc1Cl)n1c(=O)c2cccn2c2ccccc21 (stereo not drawn) | inactive: 76%

Row | SMILES | survival
45 | Cn1c(CNc2cccc(C(F)(F)F)c2)n[nH]c1=S | inactive: 111%
46 | CCc1ccccc1N1C(=O)N(Cc2cc(=O)n3ccccc3n2)c2ccccc2S1(=O)=O | inactive: 82%
47 | O=C(NCc1ccccc1)c1c2c(nc3ccccc13)C(=O)N(C1CCCCC1)C2 | inactive: 88%
48 | COC(=O)c1cc(OC)c(OC)cc1NC(=O)c1ccc2c(c1)CCN2S(C)(=O)=O | inactive: 82%
49 | Cc1ccc2c(c1)N(C(=O)c1ccc(F)cc1)C(C)(C)CC2(C)c1ccccc1 (stereo not drawn) | inactive: 43%
50 | CCOC(=O)N1CCc2c(sc3c2c(=O)n(CCc2ccccc2)c(=O)n3CC(=O)Nc2ccccc2C)C1 | inactive: 85%
51 | CCCSc1nnc(NC(=O)c2cc(=O)c3ccccc3o2)s1 | inactive: 74%
52 | COCCNC(=O)Cn1cc(/C=C2\C(=O)NC(=O)N(C3CCCCC3)C2=O)c2ccccc21 | inactive: 104%
53 | COc1ccc(S(=O)(=O)N(CCc2ccccc2)CC(=O)Nc2cc(Cl)ccc2C)cc1 | inactive: 72%
54 | COC(=O)c1cc2sccc2n1Cc1c(C)cc(C)cc1C | inactive: 42%
55 | COc1ccc(NC(=O)C2CCCN(S(=O)(=O)c3ccc4[nH]c(=O)ccc4c3)C2)cc1Cl (stereo not drawn) | inactive: 100%
56 | NC(=O)c1c(NC(=O)CS(=O)(=O)c2ccc(Cl)cc2)sc2c1CCCC2 | inactive: 133%
57 | O=C(c1cccc(Cl)c1)N(Cc1cccc(F)c1)C1CCS(=O)(=O)C1 (stereo not drawn) | inactive: 87%
58 | CCCN1CCN(CCCNC(=O)c2cc3c(s2)-c2c(C)cccc2OC3)CC1 | inactive: 103%
59 | CCOc1cccc(C(=O)N(Cc2ccc(C(C)C)cc2)C2CCS(=O)(=O)C2)c1 (stereo not drawn) | inactive: 73%
60 | COc1ccccc1C(=O)Nc1ccccc1OCc1cc(=O)n2cc(C)sc2n1 | inactive: 85%
61 | Cc1ccc(-c2nn(CCC(=O)Nc3ccc(OC(F)(F)F)cc3)c(=O)c3ccccc23)cc1 | inactive: 108%
62 | Cc1ccc(NC(=O)C2CCN(C(=O)c3sc4nc[nH]c(=O)c4c3C)CC2)cc1F | inactive: 80%
63 | Cc1ccc(/C=C(\C#N)C(=O)NC2CCCCCC2)o1 | inactive: 109%
64 | CC(C)Oc1ccc(C(=O)NCCc2csc(-c3cccc(F)c3)n2)cc1 | inactive: 72%
65 | Cc1ccccc1NC(=O)c1c(C)oc2ccc(O)c(CN(C)Cc3ccccc3)c12 | inactive: 101%
66 | Cc1ccc(-c2noc(-c3ccccc3OCC(=O)Nc3ccccc3[N+](=O)[O-])n2)cc1 | inactive: 85%

Row | SMILES | survival
67 | CCN1C(=O)C(Cc2nc3ccccc3c(=O)n2-c2cccc(C)c2)c2ccccc21 (stereo not drawn) | inactive: 53%
68 | CCCC(=O)N1c2nc(-c3ccco3)nn2C2(CCCCC2)[C@@H]2CCCC[C@@H]21 | inactive: 89%
69 | COc1cccc(NC(=O)Cn2c(=O)n(-c3ccc(C)cc3)c(=O)c3ccccc32)c1 | inactive: 75%
70 | O=C(Nc1ncc(Cc2ccc(F)cc2)s1)c1ccc2c(c1)CC(c1ccccc1)OC2=O (stereo not drawn) | inactive: 90%
71 | CCCCCn1c(CCCNC(=O)c2ccccc2)nc2ccccc21 | inactive: 65%
72 | CCC(Sc1nc2ccccc2s1)C(=O)Nc1cc(C)on1 (stereo not drawn) | inactive: 104%
73 | Cc1nn(C)c2c1c(C(F)(F)F)cc(=O)n2CC(=O)Nc1ccc(F)cc1F | inactive: 126%
74 | Cc1nnc(N2CCC(C(=O)NC3CCC(C)CC3)CC2)c2nn(-c3ccc(Cl)cc3)c(C)c12 (stereo not drawn) | inactive: 85%
75 | Cc1ccccc1NC(=O)CSc1nccn1C | inactive: 75%
76 | Cc1cc(NCCN(C)C)c2ccccc2n1 | inactive: 106%
77 | Cc1cccc(N(C)C(=O)Cn2cnc3nc4c(cc3c2=O)CCCC4)c1 | active: -1%
78 | CC(C)c1ncc(C(O)c2cccc3ccccc23)n1C (stereo not drawn) | inactive: 107%
79 | CC(CCc1ccccc1)NC(=O)CSc1n[nH]c(-c2ccccc2Cl)n1 (stereo not drawn) | inactive: 53%
80 | Cc1cc(Cl)ccc1NC(=O)C1CCCN(c2nnc(C)c3c(C)n(-c4ccccc4)nc23)C1 (stereo not drawn) | inactive: 70%
81 | COc1cccc(CNC(=O)CCc2c(C)nn(-c3ccc(N4CCCC4)nn3)c2C)c1 | inactive: 78%
82 | Cc1cc(C)c(NC(=O)C(C)n2nc(C)c3sc4ccccc4c3c2=O)c(C)c1 (stereo not drawn) | inactive: 83%
83 | COc1cccc(N2CC(NC(=O)c3cccs3)CC2=O)c1 (stereo not drawn) | inactive: 88%
84 | Cc1ccc(OC(C)C(=O)N2CCN(CCc3ccccn3)CC2)cc1C (stereo not drawn) | inactive: 83%
85 | O=S(=O)(NCC(c1ccco1)S(=O)(=O)c1cccs1)c1ccccc1 (stereo not drawn) | inactive: 78%
86 | COc1ccc(OC(=O)c2cn(-c3cccc(OC)c3)c(=O)c3ccccc23)cc1 | inactive: 74%
87 | Cc1cc(F)ccc1NC(=O)C1CCCN(C(=O)c2cnn(-c3ccccc3)c2-n2cccc2)C1 (stereo not drawn) | inactive: 85%
88 | Cc1cccc(OCC(=O)Nc2ccc3nc(SCc4ccccc4)sc3c2)c1 | inactive: 116%
